The campaign covered roughly 200,000 compounds. About 4,500 (2.2%) were called active. The inconclusive results got no clear call from the source; some entries with a clear call stand among them for comparison. Calls come from the whole dose curve; as a rule, active = well fitted inhibition curve with a large enough effect; inconclusive = small, poorly fitted or top-dose-only effect, or effect the other way; inactive = flat fitted curve, though single readings scatter. Potencies beside an inconclusive call are fits to weak or partial responses and may not hold up.
What follows are compounds tested against Cruzipain (Trypanosoma cruzi) (UniProt P25779) (assay: qHTS Assay for Promiscuous and Specific Inhibitors of Cruzain (without detergent)). Details: purified cruzain, Z-FR-AMC fluorescence, no detergent.
How it was run: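 Purified cruzain at 1.5 nM, pre-incubated 15 min with compound at room temperature in 100 mM sodium acetate pH 5.5, 5 mM DTT, 0.00005% Triton X-100. Reaction started with 2 uM Z-FR-AMC; AMC fluorescence increase over 60 s gives rate.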
Note: nearly all actives have a fitted effect of over 40% in size.
Potency is the fitted concentration of half-maximal effect; tags give direction and shape of the fitted curve.
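Throughout, for max response, negative = inhibition: plate controls were enzyme without inhibitor for no effect and buffer without enzyme for full effect.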

Sequence of UniProt P25779 (P25779 whole entry, looked up): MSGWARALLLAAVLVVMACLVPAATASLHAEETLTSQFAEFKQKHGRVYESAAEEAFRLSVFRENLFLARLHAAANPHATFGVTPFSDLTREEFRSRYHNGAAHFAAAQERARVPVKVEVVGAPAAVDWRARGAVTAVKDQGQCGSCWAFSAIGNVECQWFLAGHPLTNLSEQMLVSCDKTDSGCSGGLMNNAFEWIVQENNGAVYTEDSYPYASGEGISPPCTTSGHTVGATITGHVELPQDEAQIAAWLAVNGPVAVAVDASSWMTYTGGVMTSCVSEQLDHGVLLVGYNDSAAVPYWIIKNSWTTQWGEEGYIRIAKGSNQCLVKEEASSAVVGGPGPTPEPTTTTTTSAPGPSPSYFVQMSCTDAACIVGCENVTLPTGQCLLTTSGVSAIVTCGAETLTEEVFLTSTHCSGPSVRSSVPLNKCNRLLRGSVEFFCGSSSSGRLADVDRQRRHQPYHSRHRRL

Structure (SMILES)	Potency	max response, negative = inhibition
O=C1C(Nc2ccccc2)=C/C(=N/S(=O)(=O)c2cccs2)c2ccccc21	inconclusive: 39.8 µM [inhibitor, single point]	
Cc1nc(NC(=O)CSc2nnc(-c3ccccc3)c(-c3ccccc3)n2)c(Cl)cc1Cl	inconclusive: 31.6 µM [inhibitor, single point]	
CCOc1cc(C)c(C(C)C)cc1S(=O)(=O)N1CC(C)OC(C)C1 (configuration not stated)	inconclusive: 15.8 µM [activator, single point]	
CCN(CC)CCNC(=O)c1cc2c(=O)n(C)c3cc(Cl)ccc3c2s1		inactive: 10.4%
COc1cccc(CN2c3ccccc3-c3nc(SCC(=O)Nc4ccccc4Cl)ncc3S2(=O)=O)c1	active: 15.8 µM	
COC(=O)c1cc2oc3ccccc3c2n1Cc1ccc(Cl)cc1		inactive: -8.5%
CCC1=C(OC(=O)N(CC)CC)N2C(=O)OC(=NCCc3c[nH]c4ccccc34)[C@]2(C)[C@H]2C1=CC[C@H]1C(=O)N(CC)C(=O)[C@H]12	inconclusive: 15.8 µM [activator, partial curve]	
O=C(Nc1cccc(-c2nc3ccccc3[nH]2)c1)c1ccco1		inactive: -10.5%
CCS(=O)(=O)N1CCN(C(=O)c2ccc(-c3ccccc3)cc2)CC1	inconclusive: 31.6 µM [activator, single point]	
CCn1c2c(c(=O)n3ncc(C(=O)N4CCN(c5ccc(Cl)cc5)CC4)c13)CN(Cc1ccc(OC)cc1)CC2	inconclusive: 31.6 µM [activator, single point]	
O=C(N/N=C\c1ccc(-c2ccc([N+](=O)[O-])cc2)o1)C1COc2ccccc2O1 (configuration not stated)	inconclusive: 39.8 µM [inhibitor, single point]	
O=C(/C=C/c1c[nH]c2ccccc12)c1cccc2ccccc12	inconclusive: 25.1 µM [inhibitor, single point]	
CC(=O)NS(=O)(=O)c1ccc(N=c2ssc3c2-c2ccc(C)cc2NC3(C)C)cc1	inconclusive: 39.8 µM [activator, single point]	
Cc1ccc(S(=O)(=O)CC(=O)N2CCN(c3nc4c(F)cccc4s3)CC2)cc1		inactive: 12.1%
O=C(c1cc(C(=O)NCc2ccccc2)c(=O)n(Cc2ccccc2)c1)c1cc(Br)ccc1O	active: 3.98 µM	
CCCCN(C)CCNC(=O)c1cc2c(=O)n(C)c3ccccc3c2n1C		inactive: -4.01%
O[C@@H](c1cc(-c2ccc(Cl)cc2)nc2ccccc12)C1CCCCN1 (some centres not stated)		inactive: -8.54%
Cn1nc(-c2ccccc2F)c2cc(C(=O)Nc3ccc4c(c3)OCCO4)sc21	inconclusive: 25.1 µM [inhibitor, single point]	
COc1ccc(NC(=O)Cn2c(=O)n(Cc3ccccc3)c(=O)c3sc4ccccc4c32)cc1		inactive: -2.12%
CCOC(=O)c1c(-c2ccc(C)cc2)csc1NC(=O)CCN1CC(C)OC(C)C1 (configuration not stated)	inconclusive: 25.1 µM [activator, single point]	
Cc1cccc(-n2c(C)cc(/C=C3/C(=N)N4C(c5ccccc5)=CSC4=NC3=O)c2C)c1	active: 5.01 µM	
Cc1ccc(N2CC(NC(=O)c3cc4ccccc4o3)CC2=O)cc1 (configuration not stated)		inactive: 14%
Cc1ccc(-n2ncc3c(NCc4ccccc4)ncnc32)cc1		inactive: -25.3%

Structure (SMILES)	Potency	max response, negative = inhibition
CCCn1c(-c2ccc(F)cc2)nc2c(N3CCN(C)CC3)nc(C)nc21		inactive: -4.93%
Cc1c(C)c2cc3c(c(C)c2oc1=O)OCN(CCc1ccc(F)cc1)C3		inactive: -6.43%
COc1cc(N=c2ssnc2Cl)cc(OC)c1OC		inactive: -8.79%
Cn1c(N)c(C(=O)COC(=O)[C@H](Cc2ccccc2)N2C(=O)c3ccccc3C2=O)c(=O)n(C)c1=O	inconclusive: 39.8 µM [activator, single point]	
COC(=O)c1ccc(CSc2nnc(NC(=O)C3CC(=O)N(Cc4ccc(C)cc4)C3)s2)cc1 (configuration not stated)	inconclusive: 31.6 µM [activator, single point]	
Cc1c(/C=C(\C#N)c2nn(-c3ccccc3)c(N)c2C#N)c2ccccc2n1Cc1ccc(F)cc1	active: 3.98 µM	
COc1cc2[nH]c(=O)n(CCC(=O)N3CCN(c4cccc(C)c4C)CC3)c(=O)c2cc1OC	inconclusive: 20 µM [activator, partial curve]	
O=C(CSc1nc(=O)[nH]c2c1CCCC2)NCc1ccccc1		inactive: -2.79%
CC(C)c1nn2c(=O)cc(COC(=O)c3ccco3)nc2s1		inactive: -3.22%
CCCCCCCCCCCCCCC[C@@H](O)[C@@H](N)CO		inactive: -7.45%
COc1ccc(CSc2nc(N3CCOCC3)c3c(c2C#N)CC(C)(C)OC3)cc1	inconclusive: 39.8 µM [activator, single point]	
Cc1sc2ncnc(N/N=C/c3ccccc3O)c2c1C		inactive: 25.7%
CC(C)CSc1nnc(N)s1	inconclusive: 0.501 µM [inhibitor, partial curve]	
Cc1ccc(S(=O)(=O)c2c(O)cc(C)c(NS(=O)(=O)c3ccc(Cl)cc3)c2C)cc1	inconclusive: 20 µM [inhibitor, single point]	
CC(C)Cn1c(N)c(C(=O)NCc2cccs2)c2nc3ccccc3nc21	inconclusive: 20 µM [activator, single point]	
COc1ccc(-c2cn3c(C)c(C(=O)Nc4cccc(NC(C)=O)c4)sc3n2)cc1	inconclusive: 25.1 µM [activator, single point]	
CCOc1ccc(-c2nc(N)ncc2Oc2cccc(OC)c2)c(O)c1	inconclusive: 25.1 µM [inhibitor, single point]	
Cc1c(C(=O)OCC(=O)N2CC(C)OC(C)C2)oc2ccc(Br)cc12 (configuration not stated)	inconclusive: 39.8 µM [activator, single point]	
Cc1sc2nc(C3CC3)nc(N3CCN(S(=O)(=O)c4ccc(F)cc4)CC3)c2c1C	active: 15.8 µM	
CCOc1ccc(-c2c(C)nn3c(C)c(C(=O)Nc4cc(C)cc(C)c4)cnc23)cc1OCC		inactive: -0.745%
Fc1cccc(Cn2cc(C(=S)N3CCCCC3)c3ccccc32)c1	inconclusive: 39.8 µM [inhibitor, single point]	
Cc1ccc(-c2cc3nc(-c4ccccc4)cc(C(F)(F)F)n3n2)cc1		inactive: -2.48%
CCCOc1ccc(/C=N/Nc2cccc([N+](=O)[O-])c2)c(O)c1	inconclusive: 25.1 µM [inhibitor, single point]	

Structure (SMILES)	Potency	max response, negative = inhibition
COc1ccc(C)cc1NC(=O)C(Sc1nnc2ccccn12)c1ccccc1 (configuration not stated)	inconclusive: 31.6 µM [activator, single point]	
O=c1oc2c(CN3CCOCC3)c(O)c(Cl)cc2c2c1CCC2	inconclusive: 7.94 µM [inhibitor, single point]	
CC(C)Sc1ncc(Cl)c(C(=O)Nc2ccc(S(=O)(=O)N3CCCCC3)cc2)n1		inactive: 0.77%
CCN(CC)S(=O)(=O)c1ccc2c(c1)c(=O)c(C(=O)N1CCN(c3cc(Cl)ccc3C)CC1)cn2C	inconclusive: 2.51 µM [activator, single point]	
O=C(Oc1ccc(C(=S)N2CCOCC2)cc1Br)c1cc(Cl)ccc1Cl	inconclusive: 39.8 µM [inhibitor, single point]	
CC(=O)N1CCc2c(sc3c2c(=O)n(CCc2ccccc2)c(=O)n3Cc2ccccc2C)C1	inconclusive: 20 µM [activator, partial curve]	
COCCN(CCOC)c1nc(C)nc2c1nc(-c1ccccc1)n2CCCN(C)C		inactive: -7.63%
C=CC(C1=CC(=O)C(OC)=C(OC)C1=O)c1ccccc1 (configuration not stated)		inactive: 13.4%
CC1=C(C(=O)Nc2ccc(Cl)cc2)C(c2ccccc2)n2ncc(C(=O)Nc3ccccc3)c2N1 (configuration not stated)	inconclusive: 25.1 µM [inhibitor, partial curve]	
Cc1cccn2c(=O)c3cc(C#N)c(=O)n(-c4nnc(SCc5ccc(Cl)cc5)s4)c3nc12	active: 20 µM	
CCOC(=O)N1CCN(C(=O)COc2ccc(S(=O)(=O)NC3CCCCC3)cc2C)CC1	inconclusive: 25.1 µM [activator, single point]	
Cc1ccc(NC(=O)/C=C/c2ccc([N+](=O)[O-])s2)c(C)c1	inconclusive: 39.8 µM [inhibitor, single point]	
COc1ccc(-c2cn(-c3ccc(C)cc3)c(=O)n2CC(=O)Nc2ccc(OC)c(OC)c2)cc1	inconclusive: 39.8 µM [activator, single point]	
CCOC(=O)C1=C(O)/C(=C/c2ccc(OCC(=O)O)c(OC)c2)SC1=Nc1ccc(OCC)cc1	inconclusive: 6.31 µM [activator, single point]	
CC(C)CC(NC(=O)OCC1c2ccccc2-c2ccccc21)C(=O)O (configuration not stated)	inconclusive: 39.8 µM [activator, single point]	
CCc1ccc(-n2nc3ccc(NC(=O)COc4ccc(OC)cc4)cc3n2)cc1		inactive: 12.4%
CC(=O)N1CCCc2cc(S(=O)(=O)N3CCCC(C(=O)NCc4ccc(C)cc4)C3)ccc21 (configuration not stated)	inconclusive: 39.8 µM [activator, single point]	
COc1ccc(/C=N/n2c(=S)n(C)c3ccccc32)cc1OC	inconclusive: 39.8 µM [activator, single point]	
CCOc1ccc(NCc2nc3ccccc3n2CCOc2ccc(C)cc2)cc1		inactive: -9.36%
CCCCC/C=C\C/C=C\C/C=C\C=C\C1CCCC(=O)O1 (configuration not stated)		inactive: -0.597%
COC(=O)c1cc(=O)n(Cc2ccc3c(c2)OCO3)c(=Nc2ccccc2)s1	inconclusive: 39.8 µM [inhibitor, single point]	

Source: PubChem BioAssay AID1476 (National Center for Advancing Translational Sciences (NCATS), 2009)
